Measurements as given in PubChem BioAssay AID360 (National Center for Advancing Translational Sciences (NCATS), 2006).
The campaign covered roughly 48,000 compounds. About 550 (1.1%) were called active. Not shown: some 4% with an inconclusive outcome. Rule as the data show it: active = potency below about 15 µM; inconclusive = mostly about 16 µM to 33 µM; inactive = weaker than that. The list shows a part of the results.

The compounds below were run against Lysosomal acid glucosylceramidase (Homo sapiens) (UniProt P04062) (assay: Glucocerebrosidase). Conditions: purified enzyme, resorufin glucoside fluorescence (screen aimed at inhibitors), 20 min.
Chain of UniProt P04062 (P04062 whole entry, looked up): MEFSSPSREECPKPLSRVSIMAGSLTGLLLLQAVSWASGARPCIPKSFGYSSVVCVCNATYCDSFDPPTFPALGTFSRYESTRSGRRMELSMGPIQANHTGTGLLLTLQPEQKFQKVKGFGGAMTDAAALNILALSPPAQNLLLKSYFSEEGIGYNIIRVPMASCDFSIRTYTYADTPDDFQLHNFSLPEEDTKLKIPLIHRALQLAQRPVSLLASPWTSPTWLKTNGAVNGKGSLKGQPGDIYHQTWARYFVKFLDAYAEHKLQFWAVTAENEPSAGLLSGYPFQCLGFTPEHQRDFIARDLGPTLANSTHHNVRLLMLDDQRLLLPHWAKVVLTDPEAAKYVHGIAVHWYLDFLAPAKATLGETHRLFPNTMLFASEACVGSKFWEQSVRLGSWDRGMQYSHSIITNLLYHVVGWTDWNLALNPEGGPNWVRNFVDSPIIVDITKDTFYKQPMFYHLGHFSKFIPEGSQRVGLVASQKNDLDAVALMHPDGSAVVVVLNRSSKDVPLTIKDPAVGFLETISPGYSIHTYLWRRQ
How it was run: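 Normal human glucocerebrosidase (0.2 nM final) was assayed with resorufin β-D-glucopyranoside (30 uM final) in 50mM citric acid/KH2PO4, 10mM sodium taurocholate, 0.01% tween-20, pH 5.9. Compounds were titrated; fluorescence (Ex 548, Em 600) read after 20 min at RT.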
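Also: the screen sought inhibitors.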
Potency is read from the fitted curve at half-maximal effect.

| SMILES | Potency |
| --- | --- |
| O=C(CSc1nnc(-c2c[nH]c3ccccc23)o1)N1CCCCC1 | inactive: > 76.9 µM |
| CN1CCN(C(=O)c2cnn(-c3ccccc3)c2NC(=O)c2ccccc2F)CC1 | inactive: > 76.9 µM |
| OC(COCc1ccccc1)CN1CCCC1 (stereo not given) | inactive: > 76.9 µM |
| Cc1nn(Cc2ccccc2Cl)c(C)c1NC(=O)c1noc2c1CCCCC2 | inactive: > 76.9 µM |
| COc1cccc(C2(O)CCN(C(=O)C3CC3)CC2)c1 | inactive: > 76.9 µM |
| Cc1c(NC(=O)c2ccccc2F)c(=O)n(-c2ccccc2)n1C | inactive: > 76.9 µM |
| CCOc1ccc(S(=O)(=O)N2CCC(C(N)=O)CC2)c2ccccc12 | inactive: > 76.9 µM |
| Cc1sc2nc(C(C)Sc3nnc(C)n3-c3ccccc3)[nH]c(=O)c2c1C (stereo not given) | inactive: > 76.9 µM |
| COc1cccc(NC(=O)CSc2nnc(-c3cccs3)n2C)c1 | inactive: > 76.9 µM |
| COc1ccc(Cn2nnnc2C(c2ccncc2)N2CCOCC2)cc1 (stereo not given) | inactive: > 76.9 µM |
| Cc1cc(N2CCN(c3ccccn3)CC2)n2c(nc3ccccc32)c1C#N | inactive: > 76.9 µM |
| Cc1ccc(S(=O)(=O)N2CCC(C(=O)N[C@H](C(=O)N3CCN(C)CC3)C(C)C)CC2)cc1 | inactive: > 76.9 µM |
| CCCN(CCO)Cc1cccc(Cl)c1 | inactive: > 76.9 µM |
| O=C(/C=N/O)NCc1ccncc1 | inactive: > 76.9 µM |
| CCC(C)OC(=O)C1=C(C)NC2=C(C(=O)C(C(=O)OC)C(C)C2)C1c1ccc(N(C)C)cc1 (stereo not given) | inactive: > 76.9 µM |
| O=c1ccc(=O)n2n1CC(O)C2 | inactive: > 76.9 µM |
| CCCC1=C(C(=O)OCC)C(c2ccc(N(C)C)cc2)n2ncnc2N1 (stereo not given) | inactive: > 76.9 µM |
| C=CCSc1nc(C)c(CC(=O)OCCCC)c(=O)[nH]1 | inactive: > 76.9 µM |
| Cc1cccc(Nc2nc(NCc3ccco3)nc(N3CCOCC3)n2)c1 | inactive: > 76.9 µM |
| O=C(c1ccco1)N1CCN(S(=O)(=O)c2ccc3c(c2)OCCO3)CC1 | inactive: > 76.9 µM |
| CC(C)(C)c1cnnn1-c1ccc(-c2csc(N)n2)cc1 | inactive |
| CCN1C(=O)/C(=C/N2CCc3ccccc32)SC1=S | inactive: > 76.9 µM |
| NS(=O)(=O)c1ccc(CCNC(=O)COC(=O)C2CCCN2C(=O)c2cccs2)cc1 (stereo not given) | inactive: > 76.9 µM |
| C=CCn1c(SCC(=O)Nc2ccc3c(c2)OCCO3)nnc1-c1ccccn1 | inactive: > 76.9 µM |

| SMILES | Potency |
| --- | --- |
| CCOc1ccc(OCC)c(NC(=O)CSc2nc3ccccc3c(=O)n2C)c1 | inactive: > 76.9 µM |
| COC(=O)c1ccc(OC(=O)c2ccccn2)cc1 | inactive: > 76.9 µM |
| COc1ccc(Nc2cc(C(=O)NCCCN3CCN(C)CC3)c3ccccc3n2)cc1OC | inactive: > 76.9 µM |
| COc1cc(-c2nnc3n2N=C(c2ccccc2)CS3)cc(OC)c1OC | inactive: > 76.9 µM |
| OC(COc1ccc(OCc2ccccc2)cc1)CN1CCCCC1 (stereo not given) | inactive |
| CCC(=O)Nc1ccc(-c2nnc(SCC(=O)Nc3nccs3)n2C)cc1 | inactive: > 76.9 µM |
| O=C(Cc1cccs1)Nc1nnc(CCc2ccccc2)s1 | inactive: > 76.9 µM |
| O=C1CN(S(=O)(=O)c2ccccc2)CC(=O)N1CCc1ccccc1 | inactive: > 76.9 µM |
| COc1cc(Cn2cnnn2)ccc1O | inactive: > 76.9 µM |
| COCC(=O)Nc1nnc(Cc2ccc(OC)c(OC)c2)s1 | inactive: > 76.9 µM |
| Cc1cccc(C)c1NC(=O)CS(=O)CC(=O)NC1CCN(Cc2ccccc2)CC1 (stereo not given) | inactive: > 76.9 µM |
| c1ccc(CSc2nnc(-c3ccco3)c(-c3ccco3)n2)cc1 | inactive: > 76.9 µM |
| O=c1cc(CSc2ccccn2)[nH]c(=O)[nH]1 | inactive: > 76.9 µM |
| Cc1cc(C)c2c(=O)[nH]n(C(C)C)c2n1 | inactive: > 76.9 µM |
| Cc1cc(C)c(Cn2c(=O)n(CCCC(=O)NCc3ccco3)c(=O)c3ccccc32)c(C)c1 | inactive: > 76.9 µM |
| CCOC(=O)C1CCN(S(=O)(=O)c2c(C)n[nH]c2C)CC1 | inactive: > 76.9 µM |
| O=c1[nH]c(=O)n(Cc2ccccc2)c2c1CCC2 | inactive: > 76.9 µM |
| CCCCn1c(NCc2ccccn2)nc2ccccc21 | inactive: > 76.9 µM |
| O=C(CCCn1c(=S)[nH]c2ccccc2c1=O)NCc1ccco1 | inactive: > 76.9 µM |
| CCOC(=O)c1cc2sccc2n1CC(=O)N1CCCC1 | inactive: > 76.9 µM |
| Cn1c(SCCN2CCCCC2)nnc1-c1ccccc1Br | inactive: > 76.9 µM |
| CC(=O)Nc1ccc(N2C(=O)CSC2c2ccc(F)cc2)cc1 (stereo not given) | inactive: > 76.9 µM |
| CCCCN(C)C(=O)c1sc2ncn(CC)c(=O)c2c1C | inactive: > 76.9 µM |
| c1ccc(-c2csc3ncn4nnnc4c23)cc1 | inactive: > 76.9 µM |

| SMILES | Potency |
| --- | --- |
| c1coc(-c2nnc3n2C2(CCCC2)Cc2ccccc2-3)c1 | inactive: > 76.9 µM |
| Cc1c(C(=O)N2CCOCC2)sc2ncnc(N3CCc4ccccc4C3)c12 | inactive: > 76.9 µM |
| CCOc1ccc(OCc2ccc(C(=O)Nc3cccc(C)n3)o2)cc1 | inactive: > 76.9 µM |
| CCSc1nc2n(n1)C(c1cccc(F)c1)C1=C(CCCC1=O)N2 (stereo not given) | inactive: > 76.9 µM |
| CS(=O)(=O)N1CCN(C(=O)Cc2cccs2)CC1 | inactive: > 76.9 µM |
| COc1ccc(Cn2c(=O)[nH]c3cc(C(=O)N4CCN(Cc5ccccc5)CC4)ccc3c2=O)cc1 | inactive: > 76.9 µM |
| CC(C)COC(=O)n1ccc(C(=O)N2CCCCC2)n1 | inactive: > 76.9 µM |
| Cc1cc(NC(=O)Cn2c(=O)c3c(ncn3CC(C)C)n(Cc3ccccc3)c2=O)no1 | inactive: > 76.9 µM |
| COc1cccc(C(=O)Nc2cccc(OC(C)=O)c2)c1 | inactive: > 76.9 µM |
| COc1ccccc1NC(=O)c1ccc(NS(C)(=O)=O)cc1 | inactive: > 76.9 µM |
| COc1ccc(S(=O)(=O)NCCOc2ccccc2)cc1OC | inactive: > 76.9 µM |
| COCc1ccc2oc(C(=O)O)cc2c1 | inactive: > 76.9 µM |
| CCCn1c(=O)c2ccccc2n2c(Sc3nnnn3-c3ccccc3)nnc12 | inactive: > 76.9 µM |
| CCCCOc1ncnc2c1[nH]c1ccc(F)cc12 | inactive: > 76.9 µM |
| Cc1ccc(S(=O)(=O)N2CCC(C(=O)Nc3nnc(-c4ccco4)s3)CC2)cc1 | inactive: > 76.9 µM |
| O=C1CCCC(O)=C1C(C#Cc1ccccc1)C1=C(O)CCCC1=O | inactive: > 76.9 µM |
| Cc1nc(CNS(=O)(=O)c2cc(C)c(C)cc2C)cs1 | inactive: > 76.9 µM |
| O=C(NCc1ccc2c(c1)OCO2)c1cc2ncc(Br)cn2n1 | inactive: > 76.9 µM |
| COc1ccccc1NS(=O)(=O)c1ccc(Br)s1 | inactive: > 76.9 µM |
| CC(=O)Nc1sc2c(c1C#N)CCCCC2 | inactive: > 76.9 µM |
| CCOC(=O)c1cc2sccc2n1CCCN1C(=O)c2ccccc2C1=O | inactive |
| CCCNC(=O)c1cc(SC)ccc1Cl | inactive: > 76.9 µM |
| CC1=C(C(=O)Nc2ccc(C)cc2)C(c2ccc(C)o2)C2=C(CC(C)(C)CC2=O)N1 (stereo not given) | inactive: > 76.9 µM |
| O=C(CCSc1ccccc1)NCC1CCCO1 (stereo not given) | inactive: > 76.9 µM |

| SMILES | Potency |
| --- | --- |
| CC(C)Oc1snc(Cl)c1C(N)=O | inactive: > 76.9 µM |
| O=C(c1ccc(Br)o1)N1CCN(Cc2ccc3c(c2)OCO3)CC1 | inactive: > 76.9 µM |
| O=C(Cn1nnc(-c2ccccc2F)n1)Nc1ccc(S(=O)(=O)NC2CCCC2)cc1 | active: 6.87 µM |
| Cn1cnc2c1c(=O)n(Cc1cccc(Br)c1)c(=O)n2C | inactive: > 76.9 µM |
| Cc1cc(C)n(CCO)c(=O)n1 | inactive: > 76.9 µM |
| Cc1ccc2c(c1)nnn2C1CCN(C(=O)c2cccs2)CC1 | inactive: > 76.9 µM |
| Cn1nnnc1SCC(=O)Nc1cc(C(C)(C)C)nn1-c1ccccc1 | inactive: > 76.9 µM |
| Cn1c(-c2ccc(C(=O)c3ccccc3)s2)nc2ccccc21 | inactive: > 76.9 µM |
| Cc1ccc(-c2nn(CC(=O)NCCN3CCOCC3)c(=O)c3ccccc23)cc1 | inactive |
| CCOC(=O)CC(=O)c1cc(OC)c(OC)c(OC)c1 | inactive: > 76.9 µM |
| CCCC1CC(c2csc(N)n2)CCO1 (stereo not given) | inactive: > 76.9 µM |
| COCCCn1c(SCC(=O)NCc2ccco2)nc2sc3c(c2c1=O)CCC3 | inactive: > 76.9 µM |
| Oc1ccc(Nc2nc(-c3ccc(O)cc3)cs2)cc1 | inactive |
| COc1cccc(C2=NOC(C(=O)NCc3ccco3)C2)c1 (stereo not given) | inactive: > 76.9 µM |
| CCN(CC)P1(=O)OC(c2cc(OC)c(OC)c(OC)c2)=Nc2c1c(C)nn2-c1ccccc1 (stereo not given) | inactive: > 76.9 µM |
| C=CCc1cc(C(=O)N2CCCCC2)ccc1O | inactive: > 76.9 µM |
| N=c1sc2ccccc2n1-c1ccccc1 | inactive: > 76.9 µM |
| Nc1ccn(-c2ccccc2)c(=O)c1 | inactive: > 76.9 µM |
| Cc1nc(SCC(=O)Nc2ccccc2C(F)(F)F)c2c(=O)n(C)c(=O)n(C)c2n1 | inactive: > 76.9 µM |
| O=C1Nc2ccccc2C(O)(C(=O)NCc2ccc3c(c2)OCO3)N1c1ccccc1 (stereo not given) | inactive: > 76.9 µM |
| Cc1cc(S(=O)(=O)N2CCN(c3ncccn3)CC2)ccc1-n1cnnn1 | inactive: > 76.9 µM |
| C=CCOc1ccccc1C1C2=C(CC(C)(C)CC2=O)Nc2c1c(=O)n(C)c(=O)n2C (stereo not given) | inactive: > 76.9 µM |
| CCCCCC/C(=N/O)c1ccccn1 | inactive: > 76.9 µM |
